Drawing on paper PMC12136788, this text covers binding signal for six molecules.

The other results are listed elsewhere or left out.

Sequences and labels used below:
B1: chr2:65473824:65473825:+_ENSG00000138071_ENST00000260641|hu_hu|motif|central (ssRNA)
RNA: GGGAGUUCUACAGUCCGACGAUCGUUUUUGGUUGGGUUCAUAGGAGGUUCUGUGAGUAAGAUUUUACAAUUUCUGGUAUCGGUAUUAAGUUUCUCUGGUCCAAAUGUGUAGUCCCACAGGUGUUUCAUGUCAUCCCAAUUUCGCAACAGAGGAUUGAGCAUCA
B2: chr12:104381838:104381839:+_ENSG00000139372_ENST00000392872|hu_mus|FALSE|FALSE (ssRNA)
RNA: GGGAGUUCUACAGUCCGACGAUCCAGUAAUCAACAGUAGUGACAAUAAUUUUUAAAUCAUUGACAAAUGAUUAGCUUUCCCUAGAAGAGAAGUUCUGUAUCAGUACAUCCCAUGUACACAGCACCAGUUUAAACAGGAUUAUCCAACAGAGGAUUGAGCAUCA
B3: 90459061_90459354_3698_CDS_ENSG00000112159_ENST00000369393|human|control|control (ssRNA)
RNA: GGGAGUUCUACAGUCCGACGAUCCCGAUUCCUGAAGGCUCUAGAAAGGACCUUUCUGCCUCCAUAAAGUCCUGGGGGAUUUUGGGUGGCAAAAAGCAUAAACCGAGGGUGUGCUUUAACAACUUCCUGUGUUUCUGUUACUAGCAACAGAGGAUUGAGCAUCA
B4: chr6:114281168:114281169:-_ENSG00000196591_ENST00000368632|hu_hu|hu_hu_hu_mus_True|68_68 (ssRNA)
RNA: GGGAGUUCUACAGUCCGACGAUCUUCCAUUUUUCGGUAUAAACCAUAAUUUAGCAGCAAGUUAUGAGUCAUGCGGAUUCUAUGAGGCUUCAUGGGAUGACCCUGGCCAUAAUAAUAAUUGCCAAUAUCACCAUCAUAGUAGUACAACAGAGGAUUGAGCAUCA
B5: chr19:16212804:16212805:+_ENSG00000167460_ENST00000300933|hu_mus|hu_hu_hu_mus_False|58_78 (ssRNA)
RNA: GGGAGUUCUACAGUCCGACGAUCAACAAUUCUGGAGUGAAGGAAAGAUGUAACAUGCAAUUAAUUAAAAGCUCAGUAUUACUAUAUAUGGGCAACAAUGAUCACCCCAGCAUUCUCGCUUGGAAUGCUUAAAGACAAUCUGUUCAACAGAGGAUUGAGCAUCA
B6: chr13:48919227:48919228:+_ENSG00000139687_ENST00000267163|hu_hu|motif|central (ssRNA)
RNA: GGGAGUUCUACAGUCCGACGAUCUUUGGUACUGGUAUCAAUUUCUUUUAGUAAGUUAAAGAAUUUAUGGACACUGAUUUCGGUGUUUUUCUGUAGCUCAGUAAAAGUGAACGACAUCUCAUCUAGGUCAACUGCUGCAAUAAACAACAGAGGAUUGAGCAUCA

The target of the test is T1, UNK ZnF1-3 (human, UniProt Q9C0B0 31-174).
T1 sequence: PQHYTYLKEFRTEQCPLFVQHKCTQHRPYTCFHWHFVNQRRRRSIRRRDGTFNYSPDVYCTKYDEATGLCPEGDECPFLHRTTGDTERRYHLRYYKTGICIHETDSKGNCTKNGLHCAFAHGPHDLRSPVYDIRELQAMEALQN
Nature of the test: nsRBNS (natural sequence RNA bind-n-seq); RBNS binding buffer (assumed for nsRBNS): 25 mM Tris pH 7.5, 150 mM KCl, 3 mM MgCl2, 0.01% Triton X-100, 500 ug/ml BSA, 20 U/ml SUPERase-In, 4 C; UNK is unkempt and MSI1 is Musashi-1; names of the RNAs are library labels; protein concentration not given here; high values mean tight binding.
The molecule B1 yielded a binding signal of 0.6 enrichment R.
On to B2, for which the binding signal was 0.917 enrichment R.
The molecule B3 yielded a binding signal of 0.889 enrichment R.
For B4 the value was 1.09 enrichment R; for B5, 1.09 enrichment R; for B6, 0.7 enrichment R.
